Consider 78 sequences from the supplement of paper PMC10126150.

Sequences with one replicate were seen in a single cluster, so their values are uncertain.
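Further: ATP exposure 15 min at 22 °C before imaging.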

In this data set the test system is ATP. Kind of data set: switch fluorescence ratio, 500 uM ATP over buffer (Cy3 cluster intensity, sum of 5 cycles each) (fold (ratio)); higher = stronger signal-on switching upon ATP binding; sequences stand for … in TCGTCGGCAGCGTCAGATGTGTATAAGAGACAGTTTTTTTTTTTTTTTTTTTTTTTTT…TC. As to conditions: aptamer strand: ATP DNA aptamer (quencher-CACCTGGGGGAGTATTGCGGAGGAAGG + anchor), 100 nM annealed; ATP concentration: 500 uM; one replicate. The method, boiled down: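 Between each of five buffer/ATP cycles, the flow-cell was stripped with NaOH and re-annealed. Each cycle imaged Cy3-labelled switching-strand clusters, annealed to 100 nM quencher-labelled ATP aptamer on a modified Illumina MiSeq flow-cell, first in selection buffer and then after 15 min with 500 uM ATP at 22 °C. The fluorescence ratio is summed target-cycle over summed buffer-cycle Cy3 intensity per cluster, averaged per switch-domain sequence, with clusters outside 100-1000 RFU excluded.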
As to GACTTTCCTT, the switch fluorescence ratio stood at 1.03. CGATATACGT: the switch fluorescence ratio amounted to 1.05. On to TTCATGACCA, for which the switch fluorescence ratio is 1.07. As for AGAAGAGAGT, the switch fluorescence ratio came to 0.96.

As to TAGACGGAGG, the switch fluorescence ratio was 0.994. As for TCCTGCGGCG, the figure is 1.02; as for GTGTTACGAT, 1.01. Take ATCCGTGCTG: the switch fluorescence ratio came out at 1.02. On to CTGCGGCAGT, for which the switch fluorescence ratio is 1.06.

For the sequence GCCGTAGGGG, the switch fluorescence ratio was determined as 1.03. As to ACGGAGCGAC, the switch fluorescence ratio was 3.13.

TTACTAGCTG: the switch fluorescence ratio was 1.06. For TTTGTATTA, the switch fluorescence ratio worked out at 1.04. Regarding TTGCTTGTT, the switch fluorescence ratio worked out at 1.03.

On to GTAAATCGCG, for which the switch fluorescence ratio worked out at 0.981. As for CACGAGCACC, the figure is 1.31; as for TGAGCCCTGT, 0.977. As to TGCAAACAGT, the switch fluorescence ratio came to 1. CTCTCACCAA: the switch fluorescence ratio was 1.37. Consider TCCCGTTCG, for which the switch fluorescence ratio came out at 1.14.

As to TACAAGCTTG, the switch fluorescence ratio is 0.997. Then CAATGCGAGC, with 1.11; and CGTCTCACGC, with 1.02; and GCGCCGATTG, with 1.01.

Take CTAGCAACAT: the switch fluorescence ratio was 1.23. Take AAAATGCCAT: the switch fluorescence ratio worked out at 1.01. As to CGTTAGGAA, the switch fluorescence ratio came to 1.04.

For AGAGCCTATT, the switch fluorescence ratio stood at 0.978.

GGCCACAGAG: the switch fluorescence ratio was found to be 1.03. Then TGCCTGTATT, with 0.983; and CAGCGCTCA, with 0.992. For the sequence AGGAATTATA, the switch fluorescence ratio worked out at 0.994. As for CTGGGTGGTC, the switch fluorescence ratio was determined as 1. With GGTCCCACGT, the switch fluorescence ratio was 0.978. On to TACTGATGAA, for which the switch fluorescence ratio was 1.06.

As to CAATCAGAT, the switch fluorescence ratio amounted to 0.962. As for TCACTAGTTG, the figure is 1.01. With TTTGTGTTCG, the switch fluorescence ratio amounted to 1.04. Consider CACGCGTCAA, for which the switch fluorescence ratio came to 1.05.

CTCTGAAACC: the switch fluorescence ratio was determined as 1.12.

For AGAGAGTACA, the switch fluorescence ratio is 0.993. Turning to TCCGGGCCGA, the switch fluorescence ratio was 0.998. For CTATCTTAGT, the switch fluorescence ratio was 0.996. Regarding TTGCCGTACG, the switch fluorescence ratio was 1.04.

Take CCGTGTAGTT: the switch fluorescence ratio came to 1.05. As to GAGATAGGTC, the switch fluorescence ratio worked out at 1.03. AGGGGGTCGC: the switch fluorescence ratio is 1.04. Regarding AATAAAATGC, the switch fluorescence ratio is 0.98.

In the case of CACAACACGG, the switch fluorescence ratio was 1.52. TGACGATCCA: the switch fluorescence ratio is 1.12. Take CCCCTATTTT: the switch fluorescence ratio stood at 0.995. With GGGAAACCAA, the switch fluorescence ratio was 1.02. Regarding AATACGGGAT, the switch fluorescence ratio amounted to 1.05. On to CGTGCTAAAA, for which the switch fluorescence ratio came to 0.972. On to GAGGTATCTA, for which the switch fluorescence ratio came out at 0.99. As for TGATATTTCC, the figure is 1.06; as for AAAGACTCTG, 1.05.

In the case of ACCTTTTTCT, the switch fluorescence ratio worked out at 0.989. Turning to GGTGAGCGCA, the switch fluorescence ratio worked out at 0.988. Turning to GTTTGAGTGA, the switch fluorescence ratio is 1.01. For ATGAGGTCTT, the switch fluorescence ratio was 1.02. In the case of CGTCTAACAT, the switch fluorescence ratio worked out at 1. TCATTGCCTT: the switch fluorescence ratio was found to be 1.03. Consider CCAGTGCCCG, for which the switch fluorescence ratio is 1.12. As for ATAATAGAC, the figure is 0.969.

AGGTTCCGTA: the switch fluorescence ratio is 1.02. In the case of GATTCGAGTA, the switch fluorescence ratio came to 1. With GGTTGGTCGT, the switch fluorescence ratio came out at 1. In the case of CCTCGAGGCC, the switch fluorescence ratio amounted to 1.04.

With GGAAAGTGAA, the switch fluorescence ratio came out at 0.944. Take ACGCTGGGTT: the switch fluorescence ratio came out at 0.993.

With GCGGGGACTC, the switch fluorescence ratio was found to be 1.07. Then CGACATGGTT, with 1; and TGCAGGTGGA, with 1.14; and AGGGATGTCG, with 0.942. On to GATCCAGGGC, for which the switch fluorescence ratio came to 1.02. As to CGCACTCCAT, the switch fluorescence ratio was found to be 1.95. Then CAGTGGGCA, with 0.964.
